# The other results are listed elsewhere or left out.
# B1: SP16665A-bot-344-23-344 (Bacteroides ovatus) (protein)
# chain: SDNEFPDFDYQTVYFANQYGLRTIELGESEFVDNTLDNQHKMVIKAAWGGGYTNRNNVVINFKVDESLCDNLYFKDTDQPLVPMPASYYTLASDRIAIPKGQIMAGVEVQLTDDFFADEKSISENYVIPLLMTNVQGADSILQGKPVVENPVLTNAGDWSILPQNFVLYAVKYVNPWHGEYLRRGIDHATVAGTSKDIIRHEQFVENDEVVNISTKSMKDNLLTLKTKDESGKDISYTVRLSFAEDGSCTVHSGSQNVVVSGSGKFVSKGEKNSLGGKDRNAIYLDYTVNLTDNNIQLATKDTLVLRTRNVYGGKSLEVVRK
# Assays:
# Experiment in all cases: glycan array binding signal (z-score within array); higher = stronger binding
# Settings in all cases: glycan notation: IUPAC condensed, linker removed
# [1] = biological target: GalNAc3S(b1-4)[Fuc(a1-3)]GlcNAc
# How it was run: (§1)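 The binding signal is a Z-score computed within each array and averaged over linkers. Arrays of the same protein sequence at different concentrations or buffers were also averaged together. Data originate from 3228 arrays in the Consortium for Functional Glycomics database, kept only where the protein sequence was available.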
# GalNAc4S6S(b1-4)GlcNAc = biological target: GalNAc4S6S(b1-4)GlcNAc
# How it was run: as §1
# GalNAc6S(b1-4)GlcNAc = biological target: GalNAc6S(b1-4)GlcNAc
# How it was run: as §1
# Glc(a1-4)Glc = biological target: Glc(a1-4)Glc
# How it was run: as §1
# [2] = biological target: Glc(a1-4)Glc(a1-4)Glc(a1-4)Glc
# How it was run: as §1
# Glc(a1-6)Glc(a1-6)Glc = biological target: Glc(a1-6)Glc(a1-6)Glc
# How it was run: as §1
# [3] = biological target: Glc(a1-6)Glc(a1-6)Glc(a1-6)Glc
# How it was run: as §1
# Glc(b1-4)Glc = biological target: Glc(b1-4)Glc
# How it was run: as §1
# Glc(b1-6)Glc = biological target: Glc(b1-6)Glc
# How it was run: as §1
# GlcA(b1-3)Gal = biological target: GlcA(b1-3)Gal
# How it was run: as §1
# GlcA(b1-3)GlcNAc = biological target: GlcA(b1-3)GlcNAc
# How it was run: as §1
# GlcA(b1-6)Gal = biological target: GlcA(b1-6)Gal
# How it was run: as §1
# [4] = biological target: GlcA3S(b1-3)Gal(b1-4)GlcNAc(b1-2)Man
# How it was run: as §1
# [5] = biological target: GlcA3S(b1-3)Gal(b1-4)GlcNAc(b1-3)Gal(b1-4)Glc
# How it was run: as §1
# [6] = biological target: GlcNAc(a1-3)Gal(b1-4)GlcNAc
# How it was run: as §1
# [7] = biological target: GlcNAc(a1-4)Gal(b1-3)GlcNAc
# How it was run: as §1
# [8] = biological target: GlcNAc(a1-4)Gal(b1-4)GalNAc
# How it was run: as §1
# [9] = biological target: GlcNAc(a1-4)Gal(b1-4)GlcNAc
# How it was run: as §1
# [10] = biological target: GlcNAc(a1-4)Gal(b1-4)GlcNAc(b1-3)Gal(b1-4)Glc
# How it was run: as §1
# [11] = biological target: GlcNAc(a1-4)Gal(b1-4)GlcNAc(b1-3)Gal(b1-4)GlcNAc
# How it was run: as §1
# [12] = biological target: GlcNAc(a1-4)Gal(b1-4)GlcNAc(b1-3)Gal(b1-4)GlcNAc(b1-3)Gal(b1-4)GlcNAc
# How it was run: as §1
# [13] = biological target: GlcNAc(a1-4)Gal(b1-4)GlcNAc(b1-3)Gal(b1-4)[Fuc(a1-3)]GlcNAc(b1-3)Gal(b1-4)[Fuc(a1-3)]GlcNAc
# How it was run: as §1
# [14] = biological target: GlcNAc(a1-6)Gal(b1-4)GlcNAc
# How it was run: as §1
# [15] = biological target: GlcNAc(b1-2)Gal(b1-3)GalNAc
# How it was run: as §1
# [16] = biological target: GlcNAc(b1-2)Man(a1-3)[GlcNAc(b1-2)Man(a1-6)]Man(b1-4)GlcNAc(b1-4)GlcNAc
# How it was run: as §1
# [17] = biological target: GlcNAc(b1-2)Man(a1-3)[GlcNAc(b1-2)Man(a1-6)]Man(b1-4)GlcNAc(b1-4)[Fuc(a1-6)]GlcNAc
# How it was run: as §1
# [18] = biological target: GlcNAc(b1-2)Man(a1-3)[GlcNAc(b1-4)][GlcNAc(b1-2)Man(a1-6)]Man(b1-4)GlcNAc(b1-4)GlcNAc
# How it was run: as §1
# [19] = biological target: GlcNAc(b1-2)Man(a1-3)[GlcNAc(b1-4)][GlcNAc(b1-2)Man(a1-6)]Man(b1-4)GlcNAc(b1-4)[Fuc(a1-6)]GlcNAc
# How it was run: as §1
# [20] = biological target: GlcNAc(b1-2)[GlcNAc(b1-4)]Man(a1-3)[GlcNAc(b1-2)Man(a1-6)]Man(b1-4)GlcNAc(b1-4)GlcNAc
# How it was run: as §1
# [21] = biological target: GlcNAc(b1-2)[GlcNAc(b1-4)]Man(a1-3)[GlcNAc(b1-4)][GlcNAc(b1-2)Man(a1-6)]Man(b1-4)GlcNAc(b1-4)GlcNAc
# How it was run: as §1
# [22] = biological target: GlcNAc(b1-2)[GlcNAc(b1-4)]Man(a1-3)[GlcNAc(b1-4)][GlcNAc(b1-2)[GlcNAc(b1-6)]Man(a1-6)]Man(b1-4)GlcNAc(b1-4)GlcNAc
# How it was run: as §1
# [23] = biological target: GlcNAc(b1-2)[GlcNAc(b1-4)]Man(a1-3)[GlcNAc(b1-4)][GlcNAc(b1-2)[GlcNAc(b1-6)]Man(a1-6)]Man(b1-4)GlcNAc(b1-4)[Fuc(a1-6)]GlcNAc
# How it was run: as §1
# [24] = biological target: GlcNAc(b1-2)[GlcNAc(b1-6)]Man(a1-6)[GlcNAc(b1-2)Man(a1-3)]Man(b1-4)GlcNAc(b1-4)GlcNAc
# How it was run: as §1
# [25] = biological target: GlcNAc(b1-2)[GlcNAc(b1-6)]Man(a1-6)[GlcNAc(b1-2)Man(a1-3)]Man(b1-4)GlcNAc(b1-4)[Fuc(a1-6)]GlcNAc
# How it was run: as §1
# [26] = biological target: GlcNAc(b1-2)[GlcNAc(b1-6)]Man(a1-6)[GlcNAc(b1-4)][GlcNAc(b1-2)Man(a1-3)]Man(b1-4)GlcNAc(b1-4)GlcNAc
# How it was run: as §1
# GlcNAc(b1-3)Fuc = biological target: GlcNAc(b1-3)Fuc
# How it was run: as §1
# GlcNAc(b1-3)Gal = biological target: GlcNAc(b1-3)Gal
# How it was run: as §1
# [27] = biological target: GlcNAc(b1-3)Gal(b1-3)GalNAc
# How it was run: as §1
binder,measurement,setting,value
B1,glycan array binding signal (z-score),[1],-0.125
same,glycan array binding signal (z-score),GalNAc4S6S(b1-4)GlcNAc,-0.366
same,glycan array binding signal (z-score),GalNAc6S(b1-4)GlcNAc,-0.368
same,glycan array binding signal (z-score),Glc(a1-4)Glc,-0.119
same,glycan array binding signal (z-score),[2],-0.416
same,glycan array binding signal (z-score),Glc(a1-6)Glc(a1-6)Glc,-0.006
same,glycan array binding signal (z-score),[3],0.999
same,glycan array binding signal (z-score),Glc(b1-4)Glc,-0.218
same,glycan array binding signal (z-score),Glc(b1-6)Glc,-0.042
same,glycan array binding signal (z-score),GlcA(b1-3)Gal,0.164
same,glycan array binding signal (z-score),GlcA(b1-3)GlcNAc,-0.486
same,glycan array binding signal (z-score),GlcA(b1-6)Gal,0.866
same,glycan array binding signal (z-score),[4],0.245
same,glycan array binding signal (z-score),[5],-0.574
same,glycan array binding signal (z-score),[6],0.267
same,glycan array binding signal (z-score),[7],-0.025
same,glycan array binding signal (z-score),[8],0.024
same,glycan array binding signal (z-score),[9],-0.275
same,glycan array binding signal (z-score),[10],0.185
same,glycan array binding signal (z-score),[11],-0.188
same,glycan array binding signal (z-score),[12],-0.27
same,glycan array binding signal (z-score),[13],0.595
same,glycan array binding signal (z-score),[14],-0.122
same,glycan array binding signal (z-score),[15],0.906
same,glycan array binding signal (z-score),[16],-0.386
same,glycan array binding signal (z-score),[17],0.166
same,glycan array binding signal (z-score),[18],-0.365
same,glycan array binding signal (z-score),[19],-0.474
same,glycan array binding signal (z-score),[20],-0.083
same,glycan array binding signal (z-score),[21],1.11
same,glycan array binding signal (z-score),[22],-0.391
same,glycan array binding signal (z-score),[23],-0.358
same,glycan array binding signal (z-score),[24],-0.299
same,glycan array binding signal (z-score),[25],-0.15
same,glycan array binding signal (z-score),[26],0.157
same,glycan array binding signal (z-score),GlcNAc(b1-3)Fuc,0.371
same,glycan array binding signal (z-score),GlcNAc(b1-3)Gal,-0.64
same,glycan array binding signal (z-score),[27],-0.206
